Measured values published in patent CN115340605A (MABWELL SHANGHAI BIOSCIENCE CO LTD, dated 2022).

Key:
[1] = molecular target: T1, 表达在细胞表面的人PD-L1 (human, UniProt Q9NZQ7); test: flow cytometry on CHO-PD-L1-CD3L cells, FITC anti-human Fc, MFI
T1 construct: whole, on cells; also called CHO-PD-L1-CD3L细胞; CHO-PD-L1

[2] = molecular target: T2, 鼠PD-L1重组蛋白 (鼠 (murine), UniProt Q9EP73 fragment, limits assumed); test: BLI (Octet QKe), antibody captured on AHC probe, antigen in solution
T2 construct: also called 重组鼠PD-L1
T2 sequence (Q9EP73 19-238 limits assumed): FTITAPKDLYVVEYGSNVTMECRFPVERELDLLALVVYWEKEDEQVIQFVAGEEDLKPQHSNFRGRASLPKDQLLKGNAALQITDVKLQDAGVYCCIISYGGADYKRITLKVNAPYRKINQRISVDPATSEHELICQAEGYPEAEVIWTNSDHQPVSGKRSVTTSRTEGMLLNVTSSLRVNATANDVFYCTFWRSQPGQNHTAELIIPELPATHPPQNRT

[3] = molecular target: T1, 表达在细胞表面的人PD-L1; test: cell-based or functional assay
T1 sequence (Q9NZQ7 19-290): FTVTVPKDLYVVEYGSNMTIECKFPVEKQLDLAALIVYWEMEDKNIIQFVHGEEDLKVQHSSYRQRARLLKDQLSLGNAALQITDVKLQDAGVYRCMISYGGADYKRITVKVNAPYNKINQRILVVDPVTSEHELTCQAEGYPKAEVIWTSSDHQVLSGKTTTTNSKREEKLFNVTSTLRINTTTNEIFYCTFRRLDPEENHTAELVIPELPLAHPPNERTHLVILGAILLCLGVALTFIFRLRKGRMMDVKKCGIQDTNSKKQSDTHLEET

Row | EC50 [1] [nM] | binding result [2] | EC50, 报告基因法 (Jurkat-PD1-NFAT细胞和CHO-PD-L1-CD3L细胞, RLU) [3] [nM] | Binder
1 | 0.87 | no binding (tested: 60nM) | – | 人-骆驼嵌合单域抗体融合蛋白 (VHH-B6-human-Fc chimeric antibody) (Fc fusion, also called chB6) QVQLQESGGDSVQAGGSLRLSCIASEYIGDRYCAGWFRQAPGKEREGVAMIDRHGIVRYKDSVEGRFTISRNHAGNTLFLEMNSLKAEDTAMYYCAAERDPTNVTPCRPEYPDMDYWGKGTQVTVSSAS[gap - human IgG1 Fc with changes]
2 | 1.27 | no binding (tested: 60nM) | 3.31 | KN035-hFc融合蛋白 (Fc fusion, Control antibody, built in the same form as chB6 (variable region + hFc); also called Envafolimab) QVQLVESGGGLVQPGGSLRLSCAASGKMSSRRCMAWFRQAPGKERERVAKLLTTSGSTYLADSVKGRFTISRDNSKNTVYLQMNSLRAEDTAVYYCAADSFEDPTCTLVTSSGAFQYWGQGTLVTVSSAS[gap - human IgG1 Fc with changes]
